Measurements reported in PubChem BioAssay AID504466 (National Center for Advancing Translational Sciences (NCATS), 2011).
In all, about 330,000 compounds went through this assay and about 4,200 (1.3%) were called active. This list was built around the results that the source calls inconclusive (neither active nor inactive); the mix of calls is not that of the screen. The call rests on the fitted dose curve; in most records, active means well fitted activation curve with a large enough effect; inconclusive means small, poorly fitted or top-dose-only effect; inactive means no such curve, though single readings can be large or run the other way. Where the call is inconclusive, the potency comes from a doubtful curve fit.

Assay: qHTS screen for small molecules that induce genotoxicity in human embryonic kidney (HEK293T) cells expressing luciferase-tagged ELG1; further: nearly all actives have a fitted effect of over 60% in size; on activity change, positive = activation: % of control where 0% means no effect
Settings: HEK293T ELG1-luciferase reporter, luminescence, 16 h; series mostly up to 46 µM
Procedure, shortened: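 ELG1-luciferase HEK293T cells, 2,000/well; compound pinned in; 16 hr, 37 °C, 5% CO2; ONE-Glo, 30 min RT; luminescence on CCD imager.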
Potency means the concentration at half of the fitted maximal effect; tags describe the fitted curve by direction and shape.

| Compound | Potency | activity change, positive = activation |
| --- | --- | --- |
| COCCCNC(=O)c1cc2c(-c3cccc(OC)c3)nn(C)c2s1 | inactive | – |
| COC(=O)c1ccc(CSc2nnc(NC(=O)c3cc4c(s3)CCCC4)s2)cc1 | inconclusive: 4.47 µM [activator, full curve, poor fit] | – |
| COCCn1c(SCC(=O)Nc2cccc(F)c2)nc2c([nH]c3ccccc32)c1=O | inconclusive: 16.4 µM [activator, single point] | – |
| COCCCn1cnc2oc3nc4ccccc4nc3c2c1=O | active: 2.06 µM | – |
| CCOCCCNC(=O)c1cccc(OC2CCN(S(C)(=O)=O)CC2)c1 | inconclusive: 14.1 µM [activator, single point] | – |
| O=C(COC(=O)COc1ccccc1F)Nc1ccc(Cl)cn1 | inactive | – |
| COc1ccc(CNCC(=O)Nc2cc(OC)cc(OC)c2)cc1 | inactive | – |
| Cc1cccnc1NC(=O)Cn1nc(-c2ccccc2)oc1=S | inconclusive: 9.2 µM [activator, partial curve] | – |
| COc1ccccc1OCc1cc(C(=O)N2CCCC(OCc3cccnc3)C2)no1 (stereo unspecified) | active: 8.2 µM | – |
| O=C(/C=C/c1ccccc1)Nc1ccc(NC(=O)c2cccs2)cc1 | inconclusive: 29.1 µM [activator, partial curve, poor fit] | – |
| COc1ccccc1OCCn1c(CO)nc2ccccc21 | inactive | – |
| Cc1nc2ccc(-c3nc4cc(N)ccc4o3)cc2[nH]1 | inconclusive: 2.59 µM [activator, full curve] | – |
| CCOC(=O)/C(C#N)=C/c1ccc(OC)c(OC)c1 | inactive | – |
| COc1ccc(/C=C/c2ccc3ccccc3[n+]2C)cc1OC | inconclusive: 20.6 µM [activator, partial curve, poor fit] | – |
| CN(C)N=Nc1ccc(-c2cn(Cc3ccccc3)cn2)cc1 | inconclusive: 15.8 µM [activator, single point] | – |
| CCCc1ccc2oc(C(=O)NCCCN3CCOCC3)c(C)c2c1 | inconclusive: 5.8 µM [activator, partial curve, poor fit] | – |
| Cc1ccc2nc(-c3ccc(N4C(=NC(=O)CCC(=O)O)SC5CS(=O)(=O)CC54)cc3)sc2c1 (stereo unspecified) | inconclusive: 8.2 µM [activator, partial curve] | – |
| Cc1ccc2cc3cc(C(=O)N4CCCCC4C)oc3nc2c1 (stereo unspecified) | inconclusive: 1.03 µM [activator, full curve] | – |
| CCCCNC(=O)c1nnn(-c2ccccc2)c1N | inconclusive: 16.4 µM [activator, partial curve, poor fit] | – |
| O=C1c2ccccc2NC(c2ccccc2O)N1O (stereo unspecified) | inactive | – |
| COc1cccc(Nc2nc(-c3ccccc3)nc3ccccc23)c1 | inactive | – |
| Cc1nc(C(C)NC(=O)CCc2nnc(CCCc3ccccc3)o2)c(C)s1 (stereo unspecified) | inconclusive: 20.6 µM [activator, partial curve] | – |
| Cc1ccc(C(=O)Nc2ccccc2Cl)cc1 | inconclusive: 6.51 µM [activator, partial curve] | – |
| CCOc1ccc(-n2cc(C(=O)N3CCC(C)CC3)c3cc(OC)c(OC)cc3c2=O)cc1 | inactive | – |
| N/C(=N\OC(=O)c1ccc([N+](=O)[O-])cc1)c1cccnc1 | inconclusive: 16.4 µM [activator, partial curve, poor fit] | – |
| CS(=O)(=O)N1CCC(c2noc(-c3ccc(C(F)(F)F)cc3)n2)CC1 | inconclusive: 16.4 µM [activator, single point] | – |

| Compound | Potency | activity change, positive = activation |
| --- | --- | --- |
| O=C(N/N=C\c1cccnc1)c1ccc(Cl)s1 | inconclusive: 23.1 µM [activator, partial curve, poor fit] | – |
| Cc1ccc(C(=O)Nc2ccc3ccccc3c2)cc1 | active: 0.291 µM | – |
| CCc1ccc(NC(=O)c2cc(-c3ccc(OC)cc3)on2)cc1 | inactive | – |
| C=CCCc1ccc(C#N)c(SCc2c(C(=O)OCC)c3cc(OC(C)=O)c(Br)cc3n2C)n1 | inactive | – |
| Clc1ccccc1OCCn1cnc2ccccc21 | inconclusive: 32.6 µM [activator, partial curve, poor fit] | – |
| Clc1ccc(-n2ncc3c(N4CCCC4)ncnc32)cc1 | active: 0.184 µM | – |
| C=C(C)CSc1nc(N)c2c3c(sc2n1)CCC3 | inconclusive: 5.17 µM [activator, single point] | – |
| CCc1ccc(C(=O)COC(=O)c2ccc(-c3nnc(-c4ccccc4)o3)cc2)cc1 | inconclusive: 2.06 µM [activator, partial curve, poor fit] | – |
| Cc1nnc(SCC(=O)c2c(N)n(C3CC3)c(=O)[nH]c2=O)n1-c1ccccc1 | inactive | – |
| CC(c1nccs1)N(C)c1nc2nonc2nc1NC1CC1 (stereo unspecified) | inactive | – |
| O=C(COC(=O)c1ccccc1Cc1ccccc1)NC1CCS(=O)(=O)C1 (stereo unspecified) | inactive | – |
| Fc1ccc2nc(N3CCCCC3)sc2c1 | active: 7.31 µM | – |
| OC1CCN(c2c3c(nc4cc(-c5cccc(F)c5)nn24)CCCC3)CC1 | inactive | – |
| CC(=O)Nc1ccc(NC(=O)c2sc3nc4c(c(-c5ccc(C)cc5)c3c2N)CCC4)cc1 | inconclusive: 25.9 µM [activator, single point] | – |
| COc1cccc(CN=C2Nc3ccccc3CS2)c1 | inconclusive: 6.51 µM [activator, full curve] | – |
| COc1cccc(OCc2cc(/C=N/Nc3ccc(C(=O)O)cc3)ccc2OC)c1 | active: 4.61 µM | – |
| COCCCNC(=O)c1cccn2c(=O)c3cc4ccccc4cc3nc12 | inactive | – |
| CCCOc1ccc(C(=O)NNC(=S)NC(=O)c2ccco2)cc1 | inconclusive: 29.1 µM [activator, single point] | – |
| CCSc1ccc(-c2cccc([N+](=O)[O-])c2)nn1 | inconclusive: 6.51 µM [activator, partial curve] | – |
| COc1ccc(CC(=O)NC2CCSc3ccccc32)c(OC)c1 (stereo unspecified) | inactive | – |
| CCN=C1S/C(=C\c2cn(CC(=O)NCc3ccco3)c3ccccc23)C(=O)N1CC | inconclusive: 32.6 µM [activator, partial curve, poor fit] | – |
| O=C(/C=C/c1ccc(OCCCF)cc1)N1CCOCC1 | inconclusive: 14.6 µM [activator, partial curve] | – |
| CC1(C)NC(=O)N(CNc2cc(Cl)ccc2Cl)C1=O | inconclusive: 32.6 µM [activator, partial curve, poor fit] | – |
| O=C(c1ccc(COc2ccc(Br)cc2)o1)N1N=C(C(F)F)CC1(O)C(F)F (stereo unspecified) | inactive | – |
| O=c1[nH]c2ccc(Cl)cc2c(-c2ccccc2)c1SC(=S)N1CCOCC1 | inactive | – |
| Fc1ccccc1CSCc1nc2ccccc2[nH]1 | inconclusive: 18.3 µM [activator, single point] | – |

| Compound | Potency | activity change, positive = activation |
| --- | --- | --- |
| c1ccc(-c2ccc(-c3ccccn3)s2)nc1 | inconclusive: 3.26 µM [activator, partial curve] | – |
| COc1ccnc(CSC(N)=Nc2ccc(F)cc2)c1 | inconclusive: 32.6 µM [activator, partial curve, poor fit] | – |
| O=C(/C=C\Nc1ccccn1)c1ccc(Cl)cc1 | inconclusive: 0.259 µM [activator, partial curve, poor fit] | – |
| O=C(CSc1nc2ccccc2s1)N1CCOCC1 | inconclusive: 23.1 µM [activator, partial curve] | – |
| N#C/C(=N\Nc1ccc([N+](=O)[O-])cc1)C(=N)N1CCOCC1 | inconclusive: 16.4 µM [activator, partial curve, poor fit] | – |
| COc1cc(-c2cccc([C@H]3[C@@H]4C=CC[C@@H](C)[C@@H]4C(=O)N3Cc3ccccc3)c2)cc(OC)c1OC | inactive | – |
| COc1c(C(=O)Nc2nccs2)ccc2ccccc12 | inconclusive: 2.31 µM [activator, full curve, poor fit] | – |
| CCn1c(=O)cc(OCC(=O)NC(C)c2ccc3c(c2)OCCO3)c2ccccc21 (stereo unspecified) | inconclusive: 18.4 µM [activator, single point] | – |
| CCC(C)NC(=O)COCc1cc(-c2ccc3c(c2)OCO3)on1 (stereo unspecified) | inactive | – |
| COc1cccc(NC(=O)COC(=O)c2sccc2C)c1 | inconclusive: 8.2 µM [activator, partial curve] | – |
| Nc1c(C(=O)c2ccccc2)oc2ccc(Br)cc12 | active: 4.61 µM | – |
| Cc1ccc(OCCn2c(=O)sc3ccccc32)cc1 | inconclusive: 32.6 µM [activator, partial curve, poor fit] | – |
| Cc1ccc(OCc2cc(C(=O)N3CCN(C4CCCCC4)CC3)no2)cc1C | – | inactive: 2.31% [at 9.26 µM] |
| O=C(Nc1ccc(NC(=O)c2cccs2)cn1)c1ccccc1 | inconclusive: 2.31 µM [activator, partial curve] | – |
| CCCCCCCCCCCCCCCCn1cc[n+](CC(C)=O)c1 | inactive | – |
| CON/C=C(\C=Nc1ccc(Cl)cc1)c1ncc(C(F)(F)F)cc1Cl | inactive | – |
| CCc1ccc(-n2nc3cc(C)c(N)cc3n2)cc1 | active: 0.411 µM | – |
| Cn1cccc1/C=C1/SC(=S)N(CC(=O)O)C1=O | inactive | – |
| O=C(Cc1cccs1)Nc1nc2c(ccc3ccccc32)s1 | inconclusive: 16.4 µM [activator, single point] | – |
| CC(=O)c1cccc(NC(=O)c2cnn3ccccc23)c1 | active: 11.6 µM | – |
| COc1cccc2oc3ccc(C#Cc4ccccn4)cc3c(=O)c12 | inconclusive: 2.59 µM [activator, partial curve, poor fit] | – |
| Cn1c(CCNC(=O)c2ccco2)nc2cc(NC(=O)NC3CCCCC3)ccc21 | inconclusive: 11.6 µM [activator, partial curve] | – |
| Cc1ccc(NC(=O)CCN2C(=O)CSC2=O)cc1 | inactive | – |
| O=C(c1cnn(C(=O)CN2CCCC2=O)c1)c1ccccc1O | inactive | – |
